From PMC4336329 (PLoS ONE, 2015)
The whole screen tested about 310,000 compounds, of which about 14,000 (4.5%) showed an effect of 50% or more. Effects have a minus sign here. This is one part of the list.

Biological target: human ether-à-go-go-related gene (hERG) potassium channel (human, UniProt Q12809)
Test: primary screen, population patch clamp on CHO cells stably expressing hERG
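Note: peak tail current of the secondary pulse compared with the same well before compound.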

human ether-à-go-go-related gene (hERG) potassium channel, sequence (Q12809 whole entry, looked up): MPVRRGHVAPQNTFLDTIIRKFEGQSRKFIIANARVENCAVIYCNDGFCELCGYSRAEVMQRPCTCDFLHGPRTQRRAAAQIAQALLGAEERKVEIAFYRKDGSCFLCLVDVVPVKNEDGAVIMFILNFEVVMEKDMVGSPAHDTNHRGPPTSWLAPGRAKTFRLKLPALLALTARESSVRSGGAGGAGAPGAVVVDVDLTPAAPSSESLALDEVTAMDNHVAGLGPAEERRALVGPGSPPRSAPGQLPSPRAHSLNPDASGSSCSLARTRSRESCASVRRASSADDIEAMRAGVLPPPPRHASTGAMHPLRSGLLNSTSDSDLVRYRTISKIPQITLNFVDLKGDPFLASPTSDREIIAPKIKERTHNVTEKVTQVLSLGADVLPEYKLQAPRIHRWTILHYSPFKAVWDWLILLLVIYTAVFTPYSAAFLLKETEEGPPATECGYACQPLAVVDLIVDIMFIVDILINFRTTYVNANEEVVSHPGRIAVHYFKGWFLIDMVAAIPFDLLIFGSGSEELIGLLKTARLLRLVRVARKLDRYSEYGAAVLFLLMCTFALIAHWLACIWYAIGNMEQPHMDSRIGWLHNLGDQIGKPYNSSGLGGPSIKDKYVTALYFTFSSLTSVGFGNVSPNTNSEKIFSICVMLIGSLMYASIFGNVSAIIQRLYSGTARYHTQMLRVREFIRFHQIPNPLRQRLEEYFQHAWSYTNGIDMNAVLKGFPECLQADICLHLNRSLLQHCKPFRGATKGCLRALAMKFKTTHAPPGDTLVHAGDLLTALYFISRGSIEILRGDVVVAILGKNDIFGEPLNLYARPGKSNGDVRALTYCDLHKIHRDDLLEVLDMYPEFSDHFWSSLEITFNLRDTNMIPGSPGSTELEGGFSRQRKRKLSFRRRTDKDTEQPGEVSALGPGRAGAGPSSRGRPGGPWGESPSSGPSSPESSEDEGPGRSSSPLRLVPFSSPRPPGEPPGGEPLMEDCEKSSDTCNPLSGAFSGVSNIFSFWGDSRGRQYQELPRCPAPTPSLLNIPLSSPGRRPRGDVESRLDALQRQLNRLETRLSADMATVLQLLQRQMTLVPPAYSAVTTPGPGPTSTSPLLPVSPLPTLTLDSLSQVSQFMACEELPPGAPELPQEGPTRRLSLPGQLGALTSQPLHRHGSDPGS

SMILES | hERG current change (%, negative = inhibition) at 10uM [%]
COCCOC(=O)C1=C(C)N=C2SCCC(=O)N2C1c1ccc(OC(=O)c2ccco2)cc1 (centres unmarked) | -13.4
COc1ccc(NC(=O)COC(=O)CNS(=O)(=O)c2ccccc2)cc1OC | 18
Cc1cc(C)cc(Nc2ccc([N+](=O)[O-])nc2[N+](=O)[O-])c1 | 13.3
O=C(c1ccco1)N1CCN(C(c2cccs2)c2sc3ncnn3c2O)CC1 (centres unmarked) | -2.12
COc1ccc(CNC(=O)c2cccnc2)cc1 | 7.16
O=C(Cc1ccccc1[N+](=O)[O-])NCc1ccc2c(c1)OCO2 | 2.62
Cc1sc(NC(=S)Nc2ccc(F)cc2)c(C(N)=O)c1C | 7.71
CCOc1ccc(S(=O)(=O)NCCC(=O)OCC(=O)N2CC(=O)Nc3ccccc32)cc1 | 10.3
OCCCNc1nc(-c2ccc(Cl)cc2)nc2ccccc12 | -63.1
CC1CCN(C(=O)c2ccc(-c3ccccc3Cl)o2)CC1 | -10.7
O=C(N/N=C/c1cc2c(cc1Cl)OCO2)c1cc(-c2ccccc2)n[nH]1 | 8.35
CC(=O)c1cc(NC(=O)c2ccc([N+](=O)[O-])cc2)c(=O)oc1C | 5.07
CC(Oc1ccc(Cl)cc1Cl)c1nc(-c2ccc(NC(=O)c3cccnc3)cc2)no1 (centres unmarked) | 2.88
CCOc1cc(NC(=S)NCC2CCCO2)c(OCC)cc1NC(=O)c1cccc(C)c1 (centres unmarked) | 7.08
Cc1ccc(C(=O)OCC(=O)NCc2cccs2)cc1C | 11.7
CCc1ccccc1NC(=O)C1C(c2ccccc2)C1(Cl)Cl (centres unmarked) | 16.7
O=C(O)CSc1nnc(NC(=O)CN2CCOCC2)s1 | 26.5
COc1ccc(NS(=O)(=O)c2cc(N)ccc2N2CCCCC2)cc1 | -9.8
CN(C(=O)c1ccc(Cl)c(S(=O)(=O)N2CCOCC2)c1)c1ccccc1C(=O)O | 1.96

SMILES | hERG current change (%, negative = inhibition) at 10uM [%]
O=C(NCc1ccc(F)cc1)c1cccc2c1C(=O)c1ccc(Cl)cc1S2(=O)=O | 11.3
O=C(Nc1ccc2snnc2c1)N1CCN(c2ccccc2)CC1 | -57.2
CCOC(=O)N1CCN(C(=O)COc2ccc(Br)cc2Cl)CC1 | -40.7
Cc1csc(Nc2nc(N)c(C(=O)Nc3cc(Cl)ccc3F)o2)n1 | 4.92
CC(=O)N1c2ccc(S(=O)(=O)N3CCCCC3)cc2CC1C(=O)NCc1ccccc1C (centres unmarked) | 0.812
COc1ccc(NCc2nc3ccccc3n2CCOc2ccc(C)cc2)cc1 | -7.8
NC(=O)C[C@H]1NC(=O)[C@H](CCC(=O)O)NC(=O)c2cc([N+](=O)[O-])cc(I)c2NCCC[C@@H](C(N)=O)NC1=O | 7.43
CCN(CC)c1ccc(N=Cc2c(O)n(-c3ccc(OC)cc3)c(=O)[nH]c2=O)cc1 | 12.8
COC(=O)c1ccccc1NC(=O)CSc1nc2c(c(=O)[nH]1)CCC2 | -7.46
CCOc1ccc(CC(=O)NCCc2cnc[nH]2)cc1 | 4.45
CCn1nc(C)c(C(=O)Nc2cc(Oc3ccc(Cl)cc3)cc([N+](=O)[O-])c2)c1C | -2.93
CC(C)(C)NC(=O)CN1CCC(O)(c2ccccc2)CC1 | 13.5
C=CCN=c1sc(C(=O)OC)cc(=O)n1CC=C | 6.63
COc1ccc(NS(=O)(=O)c2ccc3c(c2)N(C(C)=O)CCO3)cc1 | 17.8
CCOc1ccc(S(=O)(=O)N2CCC(C(=O)NCc3ccccn3)CC2)cc1C | -1.61
C=CCn1c2ccccc2c(=O)c2cc(C#CC3(O)CCCCC3)ccc21 | 6.61
CSc1nnc2c(n1)OC(C)N(C(=O)c1ccccc1)c1ccccc1-2 (centres unmarked) | 2.52
COc1cc(/C=C2\NC(=O)NC2=O)cc(Br)c1OC | 1.71
CN(Cc1ccccc1)C(=O)c1[nH]cnc1C(=O)Nc1ccon1 | -1.05

SMILES | hERG current change (%, negative = inhibition) at 10uM [%]
CC(C)CC(=O)N1CCN(S(C)(=O)=O)CC1 | 5.15
COc1cc2c(cc1OC)CC(=O)N(C)CC2 | 3.16
COc1ccc(-n2nnnc2SCC(=O)c2ccc3c(c2)OCCO3)c(OC)c1 | 0.516
CC(Sc1nnc(CNC(=O)c2ccco2)n1C)C(=O)Nc1nccs1 (centres unmarked) | 18
COc1cccc(Nc2nc(NCCO)nc(N3CCCC3)n2)c1 | -15.8
COc1cc(NS(=O)(=O)c2ccc3[nH]c(=O)oc3c2)cc(OC)c1 | 14.3
CN(C)c1ccc(C(=O)OCC(=O)c2cccs2)cc1 | 2.74
CC(C)CCCC(C)CCOC(=O)CN1CCCC1 (centres unmarked) | 11.5
Cc1ccc(NC(=O)C2CCN(C(=O)c3ccc(F)cc3)CC2)nc1 | -15.4
O=C(CCC1CCCC1)N1CCN(C(=O)c2ccco2)CC1 | -6.3
CCCCn1c(=O)c(CCC(=O)OCC(=O)NC(=O)NCCOC)nc2ccccc21 | -5.88
COc1ccccc1-c1c(C(F)(F)F)oc2cc(OC(=O)c3ccccc3[N+](=O)[O-])ccc2c1=O | 16.6
CCC1c2ccc(C)n2CCN1C(=O)Nc1ccccc1C(=O)OC (centres unmarked) | 6.11
CN1CC(=O)N(CC(=O)Nc2ccc(F)cc2)c2ccccc2C1=O | 15
O=C(NCc1ccccc1)Nc1cccn(Cc2ccc(F)cc2)c1=O | -5.34
COc1ccccc1NC(=O)Cn1nc(-c2ccncc2)nc1SCC(=O)NC1CCCC1 | -20.2
O=C(COc1ccccc1)N=C1SC2CS(=O)(=O)CC2N1CCc1ccccc1 (centres unmarked) | 9.55
Cc1ccc(S(=O)(=O)NCC(=O)N(CC(=O)NC(C)(C)C)Cc2ccc3c(c2)OCO3)cc1 | 14.8
